Laboratory results from PubChem BioAssay AID623901 (Broad Institute, 2012).
Out of some 340,000 compounds screened, about 470 (0.14%) were called active. Inconclusive results, whose numbers are uncertain, are shown with a selection of clear calls.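 Rule for the calls: active = mean activation of 30% or more, with every replicate also reaching 30%; inconclusive = mean activation of 30% or more but some replicate falls short; inactive = the rest.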

test: small molecules raising miR-122 sensor signal – cell-based, Huh7 psiCHECK-miR122, Renilla luciferase, single point, primary screen (AID 623901); details: 48 h, at 12.5 µM, stronger effect = higher value;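 note: 0% = median of neutral control wells and 100% = median of positive control wells; higher luciferase signal means stronger suppression of miR-122 activity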

SMILES	activation
CCCNC(=O)C[C@@H]1CC[C@@H]2[C@H](COc3ccc(NC(=O)c4cc(F)cc(F)c4)cc3C(=O)N2C)O1	inconclusive: 43.3%
CN(C)CCNc1ncnc2c1sc1nc(-c3ccccc3)c3c(c12)CCCC3	active: 34.6%
CCCCCCCN(C(=O)CCl)c1cccc(C)c1	active: 66.3%
CCCn1c(NC(=O)c2cccc(S(=O)(=O)N3CCCC3)c2)nc2ccccc21	inconclusive: 35.5%
CCS(=O)(=O)Nc1ccc2c(c1)C(=O)N(C)[C@H]1CC[C@H](CC(=O)NCCCN3CCOCC3)O[C@H]1CO2	inconclusive: 32.5%
CN(C(=O)c1ccccc1Cl)C1CCCCC1	inconclusive: 30.5%
O=C(NCC(c1cccnc1)N1CCOCC1)NC1CCCCC1 (configuration not stated)	inconclusive: 32%
Cc1ccccc1NC(=O)Nc1ccc2c(c1)C(=O)N(C)[C@H]1CC[C@@H](CC(=O)O)O[C@H]1CO2	inconclusive: 45.8%
CCOC(=O)c1nc(C)n(-c2ccc(Cl)cc2Cl)n1	inconclusive: 41.7%
Cc1ccccc1-c1ccc([C@@H]2[C@H](CO)N3CCCCN(C(=O)Nc4cccc(F)c4)C[C@@H]23)cc1	inconclusive: 30.6%
CC(C)(C)c1ccc(S(=O)(=O)NCCc2ccncc2)cc1	inconclusive: 32%
Cc1ccc(Nc2c(-c3ccccn3)nc3cc(C)ccn23)cc1	inconclusive: 35.5%
CCOC(=O)N1CCC(NC(=O)c2ccc3c(c2)sc2nc(-c4ccccc4)cn23)CC1	inconclusive: 32.5%
C[C@@H]1CN([C@@H](C)CO)C(=O)c2cc(C#Cc3ccccc3)cnc2O[C@H]1CN(C)C(=O)c1ccccn1	inactive: 5.71%
C[C@@H]1CN([C@@H](C)CO)S(=O)(=O)c2ccc(-c3ccccc3F)cc2O[C@@H]1CN(C)Cc1cccnc1	active: 49%
COCCNC(=O)C[C@@H]1CC[C@@H]2[C@H](COc3ccc(NS(=O)(=O)c4ccc(Cl)cc4)cc3C(=O)N2C)O1	inconclusive: 32.5%
CO[C@@H]1CN(C)C(=O)c2cc(NC(=O)NC(C)C)ccc2OC[C@H](C)N(Cc2cncnc2)C[C@H]1C	inconclusive: 33%
CCN1CCN(Cc2ccc(NC(=O)c3ccc(C)c(NC(=O)C(=O)c4c[nH]c5ccccc45)c3)cc2C(F)(F)F)CC1	inconclusive: 22.9%
CNC(=O)C[C@@H]1CC[C@@H]2[C@H](COc3ccc(NC(=O)Nc4cccc(C)c4)cc3C(=O)N2C)O1	active: 46.7%
C[C@H](CO)N1C[C@H](C)[C@H](CN(C)C(=O)c2cccnc2)Oc2cc(/C=C/c3ccccc3)ccc2S1(=O)=O	inactive: -3.44%
COc1cccc(-c2ccc3c(c2)O[C@H](CN(C)C(C)=O)[C@@H](C)CN([C@H](C)CO)S3(=O)=O)c1	inactive: 5.27%
FC(F)(F)c1cc(CCN2CCNC[C@@H]2CC2CCCCC2)cc(C(F)(F)F)c1	active: 37.7%
CC(=O)N(C)C[C@@H]1Oc2cc(C#C[C@@H](C)O)ccc2S(=O)(=O)N([C@H](C)CO)C[C@H]1C	inactive: 7.88%

SMILES	activation
O=C(/C=C/Nc1cccc([N+](=O)[O-])c1)c1cccs1	inactive: -92.8%
C=CCNC(=O)c1ccccc1NC(=O)c1ccc(Cl)c(S(=O)(=O)Nc2cccc(C)c2C)c1	inactive: -155%
C[C@@H]1CN([C@H](C)CO)S(=O)(=O)c2ccc(C#Cc3ccccc3F)cc2O[C@@H]1CN(C)C(=O)Cc1ccncc1	active: 52.1%
COc1ccc(S(=O)(=O)Nc2ccc3c(c2)CC(=O)N([C@@H](C)CO)C[C@@H](C)[C@H](CN(C)Cc2ccc(-c4ccccc4)cc2)O3)cc1	inconclusive: 30.4%
O=C(Nc1ccccc1)N1C[C@@H]2[C@H](c3ccccc31)[C@H](CO)N2C(=O)c1ccncc1	inconclusive: 33.3%
CO[C@H]1CN(C)C(=O)c2cc(NC(C)=O)ccc2OC[C@@H](C)N(C(=O)CC2CC2)C[C@H]1C	inconclusive: 31.8%
C[C@H](CO)N1C[C@H](C)[C@@H](CN(C)CC2CCCCC2)Oc2c(NS(=O)(=O)c3cccs3)cccc2C1=O	active: 33.2%
C[C@@H]1CN([C@H](C)CO)C(=O)c2cc(-c3ccccc3F)cnc2O[C@@H]1CN(C)C(=O)NC1CCCCC1	inactive: -6.26%
COc1ccc(S(=O)(=O)N(C)C[C@@H]2Oc3ncc(/C=C/c4ccccc4)cc3C(=O)N([C@@H](C)CO)C[C@@H]2C)cc1	active: 42.2%
C/C=C/c1ccc2c(c1)O[C@H](CN(C)C(=O)NCCC)[C@H](C)CN([C@@H](C)CO)S2(=O)=O	inconclusive: 37.5%
C[C@@H]1CN([C@@H](C)CO)C(=O)c2cc(C#Cc3ccccn3)cnc2O[C@@H]1CN(C)C(=O)CCN1CCCCC1	inactive: 8.66%
COc1cccc(COc2cc3ccccc3nc2C)c1	inconclusive: 31.2%
CNC(=O)C[C@@H]1CC[C@@H]2[C@@H](COc3ccc(NC(=O)Nc4ccccc4OC)cc3C(=O)N2C)O1	inconclusive: 33.3%
Nc1nc(Cl)nc2c1ncn2[C@H]1C[C@H](O)[C@@H](CO)O1	inconclusive: 31.2%
COCC(C)n1c(-c2ccc3c(c2)NC(=O)CO3)csc1=Nc1ccc(OC(F)F)cc1 (configuration not stated)	inconclusive: 37.3%
C[C@@H]1CN([C@@H](C)CO)C(=O)Cc2cc(NC(=O)Nc3ccc(C(F)(F)F)cc3)ccc2O[C@H]1CN(C)CC1CCCCC1	active: 31.5%
O=C(Nc1ccc(F)cc1)N1C[C@@H]2[C@H](c3ccccc31)[C@H](CO)N2C(=O)Cc1ccccc1	inconclusive: 32.6%
CCC(=O)Nc1ccc2c(c1)OC[C@H](C)N(Cc1ccccc1F)C[C@H](C)[C@@H](OC)CN(C)C2=O	inactive: 3.89%
CN1C(=O)c2cc(NC(=O)c3cccc(F)c3)ccc2OC[C@H]2O[C@H](CC(=O)O)CC[C@H]21	inconclusive: 43.3%
C[C@@H]1CN([C@@H](C)CO)C(=O)c2cc(NC(=O)Nc3ccc(C(F)(F)F)cc3)ccc2O[C@@H]1CN(C)CC1CCCCC1	active: 40.3%
COCC#Cc1cnc2c(c1)C(=O)N([C@H](C)CO)C[C@@H](C)[C@@H](CN(C)C(=O)Cc1ccccc1)O2	inactive: 0.613%
O=C(COc1ccc(/C=N/NS(=O)(=O)c2ccccc2)cc1)Nc1ccc(F)cc1	active: 35.7%
COC(=O)C[C@@H]1CC[C@@H]2[C@@H](COc3ccc(NC(=O)c4cc(F)cc(F)c4)cc3C(=O)N2C)O1	inconclusive: 33.3%

SMILES	activation
Cc1ccccc1-c1cnc2c(c1)C(=O)N([C@H](C)CO)C[C@@H](C)[C@H](CN(C)C(=O)c1ccccc1)O2	inactive: 4.26%
Nc1cccc2nc3ccccc3cc12	active: 50.8%
CN(C)S(=O)(=O)c1ccc2c(c1)nc(CCC(=O)NCC1CCCCC1)n2C	inactive: -164%
CCCC(=O)Nc1ccc2c(c1)C(=O)N(C)[C@@H]1CC[C@H](CC(=O)NCc3cccc(F)c3)O[C@H]1CO2	inconclusive: 40%
COCC(=O)N1[C@H](CO)[C@@H](c2ccccc2)[C@H]1CN(C)C(=O)c1ccncc1	inconclusive: 33.3%
C[C@@H]1CN([C@@H](C)CO)C(=O)c2cccc(NC(=O)Nc3ccc4c(c3)OCO4)c2O[C@@H]1CN(C)Cc1ccc(Oc2ccccc2)cc1	inconclusive: 31.8%
CNC(=O)C[C@H]1CC[C@@H]2[C@@H](COc3ccc(NC(=O)Nc4ccc(Cl)cc4)cc3C(=O)N2C)O1	inconclusive: 58.3%
C[C@H](CO)N1C[C@H](C)[C@@H](CN(C)Cc2ccc(C(F)(F)F)cc2)Oc2ccc(NS(=O)(=O)c3ccc(Cl)cc3)cc2CC1=O	inconclusive: 30.6%
CNC(=O)c1nc(C)n(-c2cc(Cl)cc(Cl)c2)n1	inconclusive: 47.9%
C[C@H](CO)N1C[C@H](C)[C@@H](CN(C)Cc2ccc(Oc3ccccc3)cc2)Oc2ncc(-c3cncnc3)cc2C1=O	inconclusive: 35.5%
CNC(=O)C[C@@H]1CC[C@@H]2[C@@H](COc3ccc(NC(=O)Cc4cccs4)cc3C(=O)N2C)O1	inconclusive: 37.5%
COc1cccc(-c2cnc3c(c2)C(=O)N([C@H](C)CO)C[C@H](C)[C@H](CN(C)C(=O)Nc2cccc4ccccc24)O3)c1	inactive: 9.18%
CO[C@@H]1CN(C)C(=O)c2cc(NS(=O)(=O)c3ccccc3)ccc2OC[C@H](C)N(C)C[C@H]1C	inactive: 1.37%
CCCNC(=O)Nc1ccc2c(c1)C(=O)N(C)[C@H]1CC[C@H](CC(=O)NC3CCC3)O[C@H]1CO2	inconclusive: 37.5%
C#CCN(C[C@@H]1[C@@H](OC(=O)NCc2ccccc2F)[C@@H](OC(=O)NCc2ccccc2F)Cn2c(=O)ccc(=O)n21)S(=O)(=O)c1ccc(C)cc1	inconclusive: 31.5%
O=C(Cn1c(=O)c2ccccc2n(CC(=O)N2CCCCC2)c1=O)N1CCCCC1	active: 59.9%
COc1ccccc1NC(=O)N1CCCCN2[C@H](CO)[C@H](c3ccc(C#CC4CCCC4)cc3)[C@H]2C1	inconclusive: 30.4%
C[C@H]1CN([C@@H](C)CO)C(=O)c2cc(C#CC3(O)CCCC3)cnc2O[C@H]1CN(C)C(=O)C1CCCCC1	inactive: -1.28%
COc1ccc(-c2cc(C3CCN(c4ccc(C(C)=O)cc4[N+](=O)[O-])CC3)[nH]n2)cc1	active: 44.6%
COCC(=O)Nc1ccc2c(c1)OC[C@H](C)NC[C@@H](C)[C@@H](OC)CN(C)C2=O	inactive: 0.398%
CCCC(=O)C1=C(O)C(C(=O)OC)C(C)(C)CC1=Nc1ccc(N)cc1 (configuration not stated)	inconclusive: 32.8%
